The campaign covered roughly 310,000 compounds. About 11,000 (3.5%) were called active. Inconclusive means that the source gave no clear call. Such entries were picked first, then a sample of the others. Calls come from the whole dose curve; as a rule, active = well fitted inhibition curve with a large enough effect; inconclusive = small, poorly fitted or top-dose-only effect, or effect the other way; inactive = flat fitted curve, though single readings scatter. No potency is given beside an inconclusive call; the fits are too rough.
assay: VP16 counterscreen qHTS for inhibitors of ROR gamma transcriptional activity; settings: Drosophila S2 Gal4-VP16 UAS-luciferase, luminescence, 20 h; series mostly up to 53.6 µM;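 note: Gal4-VP16 expression switched on by copper sulfate through the metallothionein promoter; nearly all actives have a fitted effect of over 50% in size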
Potency is the fitted concentration of half-maximal effect; tags give direction and shape of the fitted curve.

Question: For `CCCCCn1c(=S)[nH]c2cc(C(=O)N3CCN(C(=O)OCC)CC3)ccc2c1=O`, which Potency is on record?
Answer: Its Potency is inconclusive [inhibitor, single point].

Question: With `Cc1cnc(C(=O)Nc2nc(-c3ccccc3)cs2)cn1` as the compound, how does the Potency read?
Answer: Its Potency is active: 4.47 µM.

Question: Which Potency does the source give for `COc1cccc(CN2CCCC(N3CCc4ccccc4C3)C2)c1O` (stereo unspecified) here?
Answer: The Potency was “inactive”.

Question: For `CCC(C(=O)N1CCCC1)n1nc(C)c2c(C)n(-c3ccccc3)nc2c1=O` (stereo unspecified), which Potency is on record?
Answer: The Potency was “inactive”.

Question: For `CC(C)(C)NNC(=S)Nc1cccc(C(F)(F)F)c1`, which Potency is on record?
Answer: Its Potency is active: 3.16 µM.

Question: For `CN(C)c1ccc(NC(=O)CCCc2ccccc2)cc1`, which Potency is on record?
Answer: The Potency was inconclusive [inhibitor, single point].

Question: Which Potency does the source give for `O=C(CN1C(=O)NC2(CCCCC2)C1=O)NCc1cccs1` here?
Answer: Its Potency is inconclusive [activator, single point].

Question: With `Cc1ccc(-n2c3nc(=O)[nH]c(=O)c-3cc3cc([N+](=O)[O-])ccc32)cc1` as the compound, how does the Potency read?
Answer: The Potency was inconclusive [inhibitor, single point].

Question: Which Potency does the source give for `C=CCn1c(CCC(O)COCCC)n[nH]c1=S` (stereo unspecified) here?
Answer: Its Potency is “inactive”.

Question: Which Potency does the source give for `O=[N+]([O-])c1cccnc1N1CCC(c2cc(-c3ccc(Cl)cc3Cl)n[nH]2)CC1` here?
Answer: Its Potency is inconclusive [inhibitor, single point].

Question: For `COc1ccc(OC)c(-c2csc(NC(=O)Cc3ccccc3OC)n2)c1`, which Potency is on record?
Answer: The Potency was “inactive”.

Question: With `COC(=O)C1(C(F)(F)F)C2C=CC(C2)N1S(=O)(=O)c1ccc(C)cc1` (stereo unspecified) as the compound, how does the Potency read?
Answer: The Potency was “inactive”.

Question: Which Potency does the source give for `CC(=O)c1cccc(NC(=S)N2CCc3ccccc32)c1` here?
Answer: The Potency was inconclusive [inhibitor, single point].

Question: Which Potency does the source give for `CCc1ccc(C(=O)CSc2nc(C)cc(=O)[nH]2)cc1` here?
Answer: Its Potency is inconclusive [inhibitor, partial curve, poor fit].

Question: With `CCCCC[C@H](O)/C=C/[C@H]1[C@H](O)CC(=O)[C@@H]1C/C=C\CCCC(=O)O` as the compound, how does the Potency read?
Answer: Its Potency is “inactive”.

Question: With `Nc1cc(Cl)nc(N/N=C/c2c(O)ccc3ccccc23)n1` as the compound, how does the Potency read?
Answer: Its Potency is active: 11.2 µM.

Question: Which Potency does the source give for `COc1cccc(/C=C/C(=O)Nc2ccc3c(c2)OCCO3)c1` here?
Answer: Its Potency is inconclusive [inhibitor, single point].

Question: Which Potency does the source give for `Cc1nc2ccc(Br)cn2c1NC(C)(C)C` here?
Answer: The Potency was inconclusive [inhibitor, single point].

Question: With `O=C(O)c1cc(N2N=C(C(F)(F)F)/C(=C/C=C/c3ccco3)C2=O)ccc1Cl` as the compound, how does the Potency read?
Answer: Its Potency is inconclusive [inhibitor, single point].

Question: For `CC1CCCCC12NC(=O)N(CC(=O)c1ccc(Cl)s1)C2=O` (stereo unspecified), which Potency is on record?
Answer: Its Potency is “inactive”.

Question: Which Potency does the source give for `CC1=NN(C(=O)CCc2ccccc2)C(O)(c2ccncc2)C1` (stereo unspecified) here?
Answer: Its Potency is inconclusive [inhibitor, single point].

Question: With `Cc1onc(-c2ccccc2Cl)c1C(=O)Nc1ccc(CN2CCCC2)cc1` as the compound, how does the Potency read?
Answer: Its Potency is “inactive”.

Question: With `Cc1c(C(=O)Nc2ccc3c(c2)OCCO3)sc2nc(-c3ccccc3)cn12` as the compound, how does the Potency read?
Answer: Its Potency is “inactive”.

Question: Which Potency does the source give for `COc1cccc(Nc2ncc3nc(-c4cccs4)c(=O)n(-c4ccccc4)c3n2)c1` here?
Answer: The Potency was inconclusive [inhibitor, partial curve].

Question: For `O=C(N/N=C/c1cn(-c2ccccc2)nc1-c1cc2ccccc2o1)c1ccccc1Br`, which Potency is on record?
Answer: The Potency was active: 5.01 µM.

Question: For `Fc1ccc2[nH]c3c(N4CCN(Cc5ccc6c(c5)OCO6)CC4)ncnc3c2c1`, which Potency is on record?
Answer: The Potency was active: 7.08 µM.

Question: Which Potency does the source give for `COc1ccc(C2OC(=O)CC2C(=O)NCc2ccc(C)cc2)cc1OC` (stereo unspecified) here?
Answer: The Potency was “inactive”.

Question: With `Cc1nn(-c2ccccc2)c2c1C(c1ccc(F)cc1F)C(C#N)=C(N)O2` (stereo unspecified) as the compound, how does the Potency read?
Answer: Its Potency is “inactive”.

Question: For `CCCC(=O)NC(=S)Nc1ccccc1N1CCOCC1`, which Potency is on record?
Answer: Its Potency is inconclusive [inhibitor, single point].

Question: With `O=Nc1c(O)[nH]c2c(Cl)c(Cl)ccc12` as the compound, how does the Potency read?
Answer: The Potency was “inactive”.

Question: For `COCCN(Cc1cc2cc(C)c(C)cc2nc1Cl)C(=O)Nc1ccccc1`, which Potency is on record?
Answer: Its Potency is inconclusive [inhibitor, single point].

Question: With `CCCOC(=O)Nc1nnc(CCC)s1` as the compound, how does the Potency read?
Answer: The Potency was inconclusive [inhibitor, full curve, poor fit].

Question: With `CC(C)c1ccccc1OCCCCCNCCO` as the compound, how does the Potency read?
Answer: The Potency was “inactive”.

Question: For `Cc1ccc(S(=O)(=O)/N=C/c2c(O)ccc3ccccc23)cc1`, which Potency is on record?
Answer: The Potency was inconclusive [inhibitor, single point].

Question: With `CCOc1ccc(OCc2ccc(C(=O)N3CCCC(C)C3)cc2)cc1` (stereo unspecified) as the compound, how does the Potency read?
Answer: Its Potency is inconclusive [inhibitor, single point].

Question: Which Potency does the source give for `COc1ccc(C(=O)Oc2cccc(/C=N/NC(N)=S)c2)cc1` here?
Answer: Its Potency is active: 10 µM.

Question: For `CCCCCCCCCCCCCCCCn1cc[n+](Cc2ccccc2)c1C`, which Potency is on record?
Answer: The Potency was active: 7.08 µM.

Question: Which Potency does the source give for `CCC(=O)Nc1ccc(-c2ccc(N3CCC(C)CC3)nn2)cc1` here?
Answer: Its Potency is inconclusive [inhibitor, full curve, poor fit].

Question: Which Potency does the source give for `CCCC(=O)c1ccc(N2CCN(C(=O)c3ccc(Br)cc3)CC2)c(F)c1` here?
Answer: The Potency was inconclusive [inhibitor, single point].

Question: With `Cc1ccc(-c2nn(-c3ccccc3)cc2CN(Cc2ccccc2)C(=O)CCC(=O)O)o1` as the compound, how does the Potency read?
Answer: Its Potency is inconclusive [inhibitor, single point].

Question: With `CCc1ccc(OCC(=O)NC2CCCCC2)c(Br)c1` as the compound, how does the Potency read?
Answer: The Potency was active: 3.98 µM.

Question: For `CC(=O)Oc1cc2c(C(=O)NCc3ccncc3)c(C)oc2c2ccccc12`, which Potency is on record?
Answer: The Potency was inconclusive [inhibitor, single point].

Question: With `Cc1ccc(CN2CCN(C(=O)c3ccco3)CC2)cc1` as the compound, how does the Potency read?
Answer: The Potency was “inactive”.

Question: Which Potency does the source give for `O=C1NC2(CCC3(CC2)OCCO3)NN1c1ccc(Cl)cc1` here?
Answer: The Potency was inconclusive [activator, single point].

Question: Which Potency does the source give for `CCOc1ccc(/C=N/NC(=O)c2cc(-c3ccco3)nc3ccccc23)cc1` here?
Answer: Its Potency is inconclusive [inhibitor, single point].

Question: For `COc1ccc(OCc2nc3c4cc(OC)c(OC)cc4nc(=S)n3[nH]2)cc1`, which Potency is on record?
Answer: The Potency was active: 0.708 µM.

Question: Which Potency does the source give for `CC1=C(C)C[C@@]23CCCN2C(=O)CCC[C@H]3C1` here?
Answer: The Potency was “inactive”.

Question: With `O=C(Nc1cccnc1Cl)c1ccc2c(Cl)c3c(nc2c1)CCC3` as the compound, how does the Potency read?
Answer: The Potency was inconclusive [inhibitor, single point].

Question: Which Potency does the source give for `NS(=O)(=O)c1ccc(Nc2nc(-c3ccc(O)cc3O)cs2)cc1` here?
Answer: The Potency was “inactive”.

Question: For `COc1cc(C(=O)N/N=C/c2ccc(OC(=O)c3ccccc3)c(OC)c2)ccc1O`, which Potency is on record?
Answer: Its Potency is “inactive”.

Question: For `Cc1ccc(S(=O)(=O)n2cc(-c3ccccc3)c(N)n2)cc1`, which Potency is on record?
Answer: Its Potency is “inactive”.

Question: For `CN1C(=O)c2ccc(NC(=O)c3ccc(Cl)cc3Cl)cc2C1=O`, which Potency is on record?
Answer: Its Potency is inconclusive [activator, single point].

Question: For `CC(=O)Nc1ccc(NC2=CC(=O)c3ccccc3C2=O)cc1`, which Potency is on record?
Answer: Its Potency is inconclusive [activator, full curve, poor fit].

Question: With `COc1ccc(/C=N\Nc2ccccn2)c(OC)c1` as the compound, how does the Potency read?
Answer: Its Potency is inconclusive [inhibitor, single point].

Question: With `CSc1ccccc1OCc1cc(C(=O)NCCN2CCCC(O)C2)no1` (stereo unspecified) as the compound, how does the Potency read?
Answer: Its Potency is “inactive”.

Question: Which Potency does the source give for `CCCCOc1ccc(C(=O)C(CN2CCOCC2)c2ccccc2)cc1` (stereo unspecified) here?
Answer: Its Potency is inconclusive [inhibitor, single point].

Question: With `CCC(=O)NC(c1ccco1)c1cc(Cl)c2cccnc2c1O` (stereo unspecified) as the compound, how does the Potency read?
Answer: Its Potency is active: 2.82 µM.

Question: Which Potency does the source give for `CCOC(=O)C1(Cc2cccc(Cl)c2)CCCN(C(=O)c2c(CC)noc2C)C1` (stereo unspecified) here?
Answer: Its Potency is inconclusive [inhibitor, single point].

Question: Which Potency does the source give for `CCCCCCCCCC(=O)N[C@H](CN1CCOCC1)[C@H](O)c1ccccc1` here?
Answer: The Potency was inconclusive [inhibitor, single point].

Question: Which Potency does the source give for `CCOC(=O)C1C(c2ccc(OC)c(OC)c2)c2c([nH][nH]c2=O)CC1(C)O` (stereo unspecified) here?
Answer: Its Potency is inconclusive [inhibitor, single point].

Question: With `CC(C)n1c(-c2cccs2)nc2ccccc21` as the compound, how does the Potency read?
Answer: The Potency was inconclusive [inhibitor, single point].

Question: For `CCOc1ccc(C(C)NC(=S)NC2CCCCC2)cc1OCC` (stereo unspecified), which Potency is on record?
Answer: The Potency was active: 14.1 µM.

Question: With `COc1ccccc1NC(=S)NC(C)C(c1cccs1)N1CCOCC1` (stereo unspecified) as the compound, how does the Potency read?
Answer: Its Potency is inconclusive [inhibitor, single point].

Question: With `Cc1cc(C)n(-c2nncc(-c3ccccc3)n2)n1` as the compound, how does the Potency read?
Answer: The Potency was inconclusive [inhibitor, partial curve].

Question: Which Potency does the source give for `Cc1ccc(Cn2nnnc2CN2CCC(NC(=O)C(C)(C)C)CC2)cc1` here?
Answer: Its Potency is inconclusive [inhibitor, single point].

Question: With `COc1ccc(OC)c(NC(=O)CSc2ncccn2)c1` as the compound, how does the Potency read?
Answer: The Potency was inconclusive [inhibitor, single point].

Question: For `CCOC(=O)N1CCN(C(=O)c2ccc(NS(=O)(=O)c3ccc(C)cc3)cc2)CC1`, which Potency is on record?
Answer: Its Potency is inconclusive [inhibitor, partial curve].

Question: With `CCC/C=C(\CCC)C(NS(=O)(=O)c1cccs1)c1ccc(C(=O)OC)cc1` (stereo unspecified) as the compound, how does the Potency read?
Answer: The Potency was inconclusive [inhibitor, single point].

Question: For `CCCCOC(=O)N/N=C/C=C/c1ccccc1`, which Potency is on record?
Answer: Its Potency is inconclusive [activator, single point].

Question: For `CCCN(CC1CC1)C(=S)NC(=O)C1CC1`, which Potency is on record?
Answer: The Potency was active: 12.6 µM.

Question: For `Cc1ccc(N2C(=O)CC(Sc3cccs3)C2=O)cc1` (stereo unspecified), which Potency is on record?
Answer: Its Potency is active: 7.94 µM.

Question: With `CC(C)c1ccc(S(=O)(=O)/N=C2/C=CC(=O)c3ccccc32)cc1` as the compound, how does the Potency read?
Answer: The Potency was active: 17.8 µM.

Question: With `CC(C)CC(=O)/C(=C\c1ccc(Cl)cc1Cl)n1cncn1` as the compound, how does the Potency read?
Answer: Its Potency is active: 5.01 µM.

Question: Which Potency does the source give for `O=C(NC1CCCC1)c1ccccc1-c1ccccc1` here?
Answer: The Potency was inconclusive [activator, single point].

Question: Which Potency does the source give for `COc1ccc(-c2cc(=O)c3cc(C)ccc3[nH]2)cc1` here?
Answer: Its Potency is inconclusive [inhibitor, single point].

Question: Which Potency does the source give for `O=C(Cn1nc(-c2ccccc2)ccc1=O)NCc1ccc(F)cc1` here?
Answer: Its Potency is inconclusive [activator, single point].

Source: PubChem BioAssay AID2546 (National Center for Advancing Translational Sciences (NCATS), 2010)
